The other results are listed elsewhere or left out.
test system: PfSIP2 AP2 domain 1 (GST-tagged); test: gcPBM binding intensity (ln(normalized median fluorescence intensity)); higher = stronger DNA binding
In short: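 GST-tagged P. falciparum DNA-binding domains produced in E. coli were incubated for 1 h on an Agilent 4 × 180k array of primer-extended double-stranded 36-bp intergenic genomic probes with negative controls. Binding intensity is the highest Masliner-normalised natural-log median intensity across replicate spots of either probe orientation, with bound protein detected by Alexa488 anti-GST antibody at 488 nm.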

Sequence	gcPBM binding intensity (ln)
TATCATTTCATATCAAGTACAAACATTTTACATATA [XGTACX_site5307]	7.2
ATAATAATATATATTGTACACACAAAATGGGAAAAA [CACACA_site8568]	7.2
TATATATATATAATAGTGCATAAATAAATATATAAA	9.34
AGCTCTTGTCATTTTGCACACACACCCGTATAGGTT [CACACA_site3056]	7.39
AAAAGGGAAATAAAATAAAAAAAGAAACATATATAG [CACACA_negctrl_site455]	6.91
GATTCTTCACCGTACTCACACATATATATATATATA [CACACA_site5665]	9.03
TCTTTTTTTTTTAAACGTACATTGCATTATCACGTA [XGTACX_site6873]	7.19
ATCCATTATTTTTGTTGTACGGGTAACTTTAAAAAG [XGTACX_site2226]	7.14
TAATTATATGTATACACACACATACATTTACATAAC [CACACA_site3238]	7.19
TTAATTTCTATATACGCATGTATGAATAAGATATTG [TGCATGCA_site202]	6.75
ATTTTTTTATAAGAAAATTTCTAACGTTAAAAAAAA [CACACA_negctrl_site1367]	6.86
TATAATTATATATATAGTACAGATTTGTTATGTTTA [XGTACX_site7724]	6.94
CAAACAAACAAATATACACACTTTTGTATAAAGTAA [CACACA_site5860]	6.79
TATCTCATAGTATACACACACACACCCACCCATATA [CACACA_site1739]	7.18
CACACGCACGAACACACACACACACGCATATAAATA [CACACA_site6302]	7.66
AATATATATATATTCACACATAAAAAAGTAAAAAAA [CACACA_site5040]	7.14
CATTTACATGCCAACATGCACTGAACAATCTTTATA [GTGCAC_site9797]	7.46
ACAAAACTTTTAAGAACACACAAAAATGTACTATCG [CACACA_site7245]	6.78
TTTTATGAATAATTATGTACATAACAAATGATATAT [XGTACX_site8318]	7.3
TACAAAAAAAAATAAAATACATATATATATATATAT [XGTACX_negctrl_site608]	9.76
CCCTATATAAATAGCTGTACATTTGAACATGTTCAG [XGTACX_site2187]	6.97
TTTACAGGAAAAAATACACACATTATTTTACCTTAT [CACACA_site2833]	6.97

Sequence	gcPBM binding intensity (ln)
CAATAAAAATTAAAATGTACAAATAAATATAAATAT [XGTACX_site7265]	6.82
ACATGCCAAAATCTAATACAATAATAATAAAAAAAA [XGTACX_negctrl_site160]	6.84
ATGAATTATAAATATTCACACAATATTTTTCATATG [CACACA_site4484]	6.78
AGTGTGCTCAGCTTAGCACAAATTGGAATACCATGT [CACACA_negctrl_site367]	7.18
GAAAATGAAATCCTTGCATGTAAAATTAAAATAGAA [TGCATGCA_site569]	7.05
GTAGTAATAAATTAAAGTACAGAATATATTATACTA [XGTACX_site2809]	6.89
TTTTTTTCTTAAAGATGTACTTTTTAAAAATAATCT [XGTACX_site1429]	6.68
TGTGTGTGTTCATGGGTGCTTTAATACTATTATAGG [GTGCAC_site9465]	8.34
TATTATAAAAATATTCAGATACATTAACTTACTTTT [XGTACX_negctrl_site4]	6.65
TATTTGCTACATATATGTACTAAAAACTTTTTGCTT [XGTACX_site2362]	6.96
TATCAATTTTTCTGGCTATCCAATTAGGGGAAGCCA [CACACA_negctrl_site1045]	6.51
ATTTGCTCACAAGAAGCACACAAAAAAAGAAAAAAA [CACACA_site9338]	6.85
CAAAAAATTTGACGTAGTACTTAAAAAAAAAAAAAA [XGTACX_site4523]	6.93
ATATAAATAAACAGGTGTACTATAATGTTCATAGTA [XGTACX_site1553]	6.84
GGGAAAATATTTGGGTGTACAAACAAATTAGCTAGC [XGTACX_site6795]	6.93
TATGATTTCACATAATGTACTTGCTAATTCGTGAAT [XGTACX_site1408]	6.74
AAGAAAATATAAAATGCACACTATAAATTGTATTTA [CACACA_site4257]	7.6
TAATTATATATATATGCATGTTATAATTTTTATTTT [TGCATGCA_site78]	6.73
TCTTTAACAAGTTAAACACACATACATAAATACATA [CACACA_site5406]	7.05
TTATGTCATAAATGCACACATATACATTGTTTTGAT [CACACA_site646]	7.17
ACAAAAATATTATATTGTACATTATTAGTTCATATT [XGTACX_site6750]	6.9
TTTTTATATAAATAATGTACATTTGGTTTTATTATA [XGTACX_site2125]	6.85

Sequence	gcPBM binding intensity (ln)
AACACCCACAGACACACACACAAAAATGATTAAAAA [CACACA_site2433]	7.27
TATTTGTATAAATAAAAATAATATATATCAAATAAC [CACACA_negctrl_site218]	6.98
TGAACTCATAGGAAAACACACATATGTGTAATATAT [CACACA_site4267]	6.96
AACAAAAAAACAAACACACACACACGCATATTTATA [CACACA_site7680]	7.01
AAATATAGTATTAAAACACACATTTATATAAAAAGG [CACACA_site1482]	7.02
AAAAACAACACAGATAAATTAACACACACACACATA [XGTACX_negctrl_site588]	7.36
TATATACTCAGACATACACACAAATAAAAAAACACC [CACACA_site5820]	8.07
TTATGTGATTTTAATTGTACATAAATATTTGTTAAC [XGTACX_site3489]	7.05
CACGCATACAGACACACACACACACGGATATAAATA [CACACA_site6445]	7.28
CAATAAATCGAAATCGTGCACGGACACATGCAGTAG	9.04
AAATAATATAAATACACACACACATATATAAATACA [CACACA_site4465]	7.11
GGTTCATTTATATGGAGTACAAAAAATATGTATATA [XGTACX_site8209]	7.05
ATATATATAATAAGTGGTACAAGTTATTCATTAAAT [XGTACX_site7063]	7.7
AAAGAAAACGGACTTTGTACTTAAATATAATATAAA [XGTACX_site8585]	6.99
TTTTTTTATACAATTTTATATATTAAATATTATAAT [CACACA_negctrl_site226]	6.81
TAAAGTTATATATTATGTACATATTTGTATACATTT [XGTACX_site2516]	7.12
AACAACTATTAATTTACACACATGTATTTATTTTAC [CACACA_site5683]	7.05
TCTTATATATTTATTTGTACATATATATATATATAT [XGTACX_site7214]	8.91
AATTGTCAGAGAATATGTACTTAAGTATTTATTGTT [XGTACX_site1947]	7.04
ATAAAAAAATAAAACACACACATATATATTATATAT [CACACA_site2810]	7.12
TAAATAAAAAAACACACACACATATATATATATATA [CACACA_site2269]	9.47
AATAAGATATCTACAACACACATTTAATTTTTTTTT [CACACA_site1641]	6.86

Sequence	gcPBM binding intensity (ln)
AATCATAAAGAACATATAATATATATATATATATAT [CACACA_negctrl_site316]	9.54
AATGCATTGATTGCATTCAAAAAAAAAAAAAAAAAA [XGTACX_negctrl_site597]	7.12
AATATATGCTTTCGTTATATTAAATTCAATTTAATG [GTGCAC_negctrl_site76]	6.95
TGTATTACGAAAAAATGTACAGAAAAAGAAACAAAA [XGTACX_site2777]	7.23
TTTGTCATAAGCAATGCATGTAAGTTTCTGACATTA [TGCATGCA_site1007]	6.95
TGGGATAGATCATTTACACACACAAAAAAAAAAAAA [CACACA_site2140]	6.82
ATTTATAAAATTAATAGTACATATATTTATATATAT [XGTACX_site4173]	7.63
TATTGCACAAAATAATTTTATTATACTTTATGTTAG [TGCATGCA_negctrl_site574]	6.93
ATTTGGCATAGACACACACACACACGCACGCACATA [CACACA_site6424]	7.74
TATGTTCATCATAGCACACATATATAAATTACAACA [CACACA_site3533]	6.98
CAAAAATAAACTATAGTACACACTTATTATTATGAA [CACACA_site2702]	6.89
TTTTTATGTAGAATTTTTTTATTTTTTCAAAATGGA [CACACA_negctrl_site166]	6.69
ATTGTAATCATATGAAGTACTAATATATATTTTAAT [XGTACX_site8350]	7.04
AATTTTAAAAATATAACACACATATATAAAATATAT [CACACA_site3610]	6.83
AATGAAGAAAAAAAAAGTACATTATTTTTAAAACTT [XGTACX_site563]	6.79
TTTTAAATAAAATATTGTACATTAAAATTGTAATAT [XGTACX_site2128]	6.83
AAGCAAACATATTAATGTACACACACCCACACACAA [XGTACX_site5806]	7.18
TAAGATAAATGATAAAGTACTTTTTTTTTTTAAATA [XGTACX_site2326]	6.77
ATTATAAATATGTATATACACACTTTTAATATTCAT [CACACA_site9367]	7
AGTAAAAAAAAAAAAAAAAAAAAAAAAAAAAAAAAA [GTGCAC_negctrl_site147]	7.11
TATTAATATTTTTGTTGTACTTAAAAATGATGGTAG [XGTACX_site3501]	7.4
TATTATTTTAATTATTCACACATTATTATAAAAATT [CACACA_site5538]	6.99

Reference: the supplement of paper PMC11417369
